# The whole screen tested about 120,000 compounds, of which about 5,300 (4.4%) were called active. The shares of active, inactive and inconclusive entries below differ from those in the screen. The call rests on the fitted dose curve; in most records, active means well fitted inhibition curve with a large enough effect; inconclusive means small, poorly fitted or top-dose-only effect; inactive means no such curve, though single readings can be large or run the other way. Where the call is inconclusive, the potency comes from a doubtful curve fit.
# Assay: qHTS Primary assay for Inhibitors of Plasmodium falciparum Dd2 growth in vitro; further: nearly all actives have a fitted effect of over 65% in size;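 on activity, negative = inhibition: plate controls were DMSO vehicle for no effect and reference drug for full effect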
# Conditions: P. falciparum Dd2 growth, SYBR Green, 72 h; activity, negative = inhibition: at 28.9 µM (top of the series) unless noted; series mostly up to 28.9 µM
# Procedure, shortened: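 Infected erythrocytes (Dd2, 0.3% parasitemia, 2.5% hematocrit final) are added to compound in RPMI-1640/Albumax II medium, grown 72 h at 37C in low oxygen, then lysed with saponin/Triton-X containing SYBR Green and read by fluorescence.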
# Potency means the concentration at half of the fitted maximal effect; tags describe the fitted curve by direction and shape.
SMILES,Potency,"activity, negative = inhibition",outcome
CCNC(=O)NC1(CCOC)CCN(Cc2cccc(C)c2)CC1,"inconclusive: 17.8 µM [inhibitor, single point]",–,–
COc1cccc(CNC(=O)[C@@H]2C[C@@H](O)CN2C2CCN(C(=O)c3ccc(C)s3)CC2)c1,"inconclusive: 8.91 µM [inhibitor, partial curve, poor fit]",–,–
Cc1cccn2c(=O)c(C(=O)N3CCN(c4ccccc4F)CC3)cnc12,–,inactive: -26.4%,–
CCCCN(C)CCNC(=O)c1nn(-c2ccc(OC)c(Cl)c2)c(=O)c2c1c1ccccc1n2C,"inconclusive: 3.55 µM [inhibitor, partial curve]",–,–
COc1ccc2cc1Nc1ccc(cc1)C[C@H](NCc1ccc(C)o1)C(=O)N(C)[C@@H](C(=O)NCc1ccccc1)C2,active: 0.891 µM,–,–
COCCCNC(=O)N1CCC2(CC1)CN(C(C)=O)CC2COC (stereo not given),–,–,inactive
COCc1ccc2c(c1)c(OC(C)(C)C(=O)NC1CCC(O)CC1)nn2CCC(C)C (stereo not given),–,–,inactive [at 44.1 µM]
COc1ccc(C(=O)NCCn2cc(SCC(=O)Nc3ccc4c(c3)OCCO4)c3ccccc32)cc1,"inconclusive: 7.94 µM [inhibitor, partial curve]",–,–
Cc1cccc(N2CCN(S(=O)(=O)c3cc(C(=O)Nc4ccc(Oc5ccccc5)cc4)ccc3F)CC2C)c1 (stereo not given),"inconclusive: 12.6 µM [inhibitor, single point]",–,–
COc1cccc([S+](=O)([O-])N2CCC(N3CCNC3=O)CC2)c1,–,inactive: 14%,–
COc1ccc(C(=O)N2CCc3nc(C(C)C)nc(-c4ccc(Cl)cc4)c3CC2)cc1,active: 11.2 µM,–,–
CN1CCC(NC(=O)C(C)(C)Oc2nn(Cc3cccc(Cl)c3)c3ccccc23)CC1,"inconclusive: 1.78 µM [inhibitor, partial curve, poor fit]",–,–
Cc1ccc(OCc2nc(C3CN(C(=O)CCc4nc5ccccc5s4)C3)no2)cc1,"inconclusive: 12.6 µM [inhibitor, single point]",–,–
OC1(c2csc(CN3CCN(c4ccccn4)CC3)n2)CCN(C2CCCC2)CC1,"inconclusive: 31.6 µM [inhibitor, single point]",–,–
COC(=O)c1ccc(NC(=O)c2c(NCc3cccc(F)c3)sc3c2CCCC3)cc1,active: 12.6 µM,–,–
CC(C)(C)C(=O)N1CCCN(Cc2ccc3c(c2)OCO3)c2ccccc21,"inconclusive: 17.8 µM [inhibitor, single point]",–,–
CCOc1ccc(/C=C/c2nc(C#N)c(N3CCN(CC)CC3)o2)cc1,"inconclusive: 17.8 µM [inhibitor, single point]",–,–
CCN(CC)S(=O)(=O)c1ccc(NC(=O)Cn2ncc3c([nH]c4ccccc43)c2=O)cc1,–,inactive: 45%,–
O=C(CN1C(=O)C2(SCC(=O)N2c2ccc(F)c(F)c2)c2ccccc21)NCCc1ccccc1 (stereo not given),"inconclusive: 10 µM [inhibitor, single point]",–,–
c1ccc(-c2noc(-c3cncnc3NC3CCCCCC3)n2)cc1,"inconclusive: 0.708 µM [inhibitor, partial curve]",–,–
COc1ccccc1Oc1c(CCC(=O)NCC(C)C)c(C)nn1-c1ccc(F)cc1,"inconclusive: 1 µM [inhibitor, partial curve, poor fit]",–,–
O=C(c1ccc(F)cc1)N1CCn2c(nnc2C2CC2)C1,–,inactive: -10.5% [at 44.1 µM],–

SMILES,Potency,"activity, negative = inhibition",outcome
COc1ccccc1CC(=O)N1CCCc2ncc(C(=O)Nc3ccccn3)cc21,"inconclusive: 31.6 µM [inhibitor, single point]",–,–
Cc1ccc(CN2CCc3oc(C)c(C(=O)NC4CCCC4)c3C2)cc1,"inconclusive: 8.91 µM [inhibitor, partial curve, poor fit]",–,–
Cc1nncn1C1CCN(S(=O)(=O)c2ccccc2Cl)CC1,"inconclusive: 7.08 µM [inhibitor, single point]",–,–
Cc1cc(F)ccc1NC(=O)c1csc2c1CCC(C)C2 (stereo not given),active: 4.47 µM,–,–
O=c1n(-c2ccncc2)nc2n1CCN(Cc1ccc(F)cc1)C2,"inconclusive: 11.2 µM [inhibitor, partial curve]",–,–
CC1(C)CNC(=O)c2nc(C3CCCN(Cc4ccccc4)C3)[nH]c2C1 (stereo not given),"inconclusive: 10 µM [inhibitor, partial curve, poor fit]",–,–
COc1cccc(CN2C(=O)c3ccccc3Sc3ccc(C(=O)NCc4ccccc4)cc32)c1,"inconclusive: 17.8 µM [inhibitor, single point]",–,–
COc1ccccc1C(=O)Nc1c(C(=O)Nc2cc(Cl)ccc2C)sc2nc(C)cc(C)c12,–,inactive: 1.56%,–
O=C1c2cnc(-c3ccc(CO)cc3)nc2OCCN1c1cccc(C(F)(F)F)c1,"inconclusive: 8.91 µM [inhibitor, partial curve]",–,–
O=C(Nc1ccccc1)c1cnc(N2CCCCC2)c2ccccc12,"inconclusive: 0.0398 µM [inhibitor, full curve, poor fit]",–,–
CCN(CC)c1cc(C)c2cc(NC(=O)c3ccc(OC)c(OC)c3)ccc2n1,–,inactive: -2.24%,–
Cc1nc(N2CCC(C(=O)NCCC3=CCCCC3)CC2)cc(C(F)(F)F)n1,"inconclusive: 3.98 µM [inhibitor, single point]",–,–
COc1ccccc1OC1(C(=O)O)CCN(C(=O)CCC2CC2)CC1,–,inactive: 0.0366%,–
CCOC(=O)c1scc(-c2ccccc2)c1S(=O)(=O)N1CCN(c2ccc(Cl)cc2)CC1,"inconclusive: 10 µM [inhibitor, single point]",–,–
CCn1cc(CN(C)C(=O)c2cc(-c3ccc(OC)cc3)cn2CC)c(C)n1,"inconclusive: 11.2 µM [inhibitor, partial curve, poor fit]",–,–
O[C@H]1[C@H](NCC2CCCC2)[C@@H](C2CCCCC2)C[C@H]1O,"inconclusive: 2 µM [inhibitor, partial curve, poor fit]",–,–
O=C(NCCc1ccncc1)C1c2ccccc2C(=O)N(Cc2ccccc2)C12CCCC2 (stereo not given),–,inactive: -29.2%,–
CCc1ccc(NC(=O)CSc2nc3c([nH]c4ccccc43)c(=O)n2-c2ccc(C)cc2)cc1,"inconclusive: 1.12 µM [inhibitor, partial curve, poor fit]",–,–
O=C1CC2(CCN(Cc3ccc(C(F)(F)F)cc3)CC2)Oc2ccccc2N1c1ccccc1,"inconclusive: 7.94 µM [inhibitor, partial curve]",–,–
O[C@@H]1C[C@@H](c2nc(-c3ccccc3)no2)N(Cc2cc3ccccc3o2)C1,"inconclusive: 20 µM [inhibitor, partial curve, poor fit]",–,–
COc1cc(OCc2ccccc2)ccc1CN1C[C@@H]2CCN[C@@H]2C1,active: 10 µM,–,–
CCc1nc2c(c(-c3ccc(O)cc3)n1)CCN(Cc1ccc(C)cc1)CC2,"inconclusive: 2.24 µM [inhibitor, single point]",–,–

SMILES,Potency,"activity, negative = inhibition",outcome
COc1cccc(CN(C(=O)COc2ccc(Cl)c(C)c2)C2CCS(=O)(=O)C2)c1 (stereo not given),"inconclusive: 10 µM [inhibitor, partial curve, poor fit]",–,–
O=C(Cn1c(=O)n(-c2ccccc2)c(=O)c2c3c(sc21)CCC3)c1ccc(F)cc1,"inconclusive: 17.8 µM [inhibitor, partial curve, poor fit]",–,–
O=C(NCc1ccccc1)c1ccc2c(c1)N(Cc1ccccc1F)C(=O)c1ccccc1S2=O (stereo not given),"inconclusive: 11.2 µM [inhibitor, single point]",–,–
CC(C)n1cc2cc(C(=O)N3CCCCC3)sc2c1,–,inactive: -20.4%,–
O=c1c(-c2cccc(C(F)(F)F)c2)ccc2n1C[C@H]1C[C@@H]2CN(S(=O)(=O)c2ccccc2)C1,–,inactive: -1.44%,–
NC(=O)Cc1c[nH]c2ncc(-c3cccc(C(F)(F)F)c3)cc12,"inconclusive: 25.1 µM [inhibitor, single point]",–,–
O=C(c1cccc(Cl)c1)N1CCC2(CC1)CCN(Cc1cccs1)c1ccccc1O2,active: 7.94 µM,–,–
COc1ccc(-c2ccc(NS(=O)(=O)c3ccc(NC(C)=O)cc3)cc2)nn1,"inconclusive: 12.6 µM [inhibitor, single point]",–,–
Cc1ccccc1CC(=O)Nc1cccc(-c2nnc3n2CCCC3)c1,"inconclusive: 5.01 µM [inhibitor, partial curve, poor fit]",–,–
COc1ccc(NC(=O)Cn2cccc2-c2nc(-c3ccc(OC)c(F)c3)no2)cc1,"inconclusive: 1.26 µM [inhibitor, full curve, poor fit]",–,–
Cc1nc(-c2c3n(c(=O)n(CC(=O)NCc4ccc(Cl)cc4)c2=O)CCCCC3)no1,–,inactive: 23.3%,–
Cc1nc(SCC(=O)N2CCN(c3ccccc3)CC2)[nH]c(=O)c1C,–,inactive: 2.9%,–
Cc1nn(C)c(C)c1CCN(C)C(=O)CCC[C@H]1NC[C@@H]2C[C@H]1CN(Cc1ccccc1)C2,"inconclusive: 22.4 µM [inhibitor, partial curve, poor fit]",–,–
COc1ccccc1C(=O)N1CCC2(CC1)CN[S+](=O)([O-])c1ccccc1N2,–,inactive: -4.16%,–
COc1cc2c(cc1OC)C(COc1ccc3c(C)cc(=O)oc3c1)N(C(=O)Cc1ccc(F)cc1)CC2 (stereo not given),"inconclusive: 1.58 µM [inhibitor, full curve]",–,–
CCC1(O)CCC12CCN(C(=O)c1ccoc1)CC2 (stereo not given),–,inactive: -21%,–
CC(C)NC(=O)[C@@H]1C[C@H](N)CN1C(=O)c1cccc(S(C)(=O)=O)c1,–,inactive: 4.96%,–
CCN(CCn1cccn1)C(=O)c1csc2nc(-c3cccc(F)c3)cn12,–,inactive: -7.28%,–
COCCN1C(=O)CO[C@H]2CN(C3CCOCC3)C[C@H]21,–,inactive: 19.5% [at 44.1 µM],–
O=C(Nc1cccc(F)c1)c1ccc2oc(=O)n(Cc3ccccc3)c2c1,"inconclusive: 11.2 µM [inhibitor, single point]",–,–
O=C(COc1ccccc1)Nc1ccc([C@@H](O)[C@H]2COCC(=O)N2Cc2ccccc2F)cc1,"inconclusive: 10 µM [inhibitor, single point]",–,–

# Source: PubChem BioAssay AID1347417 (National Center for Advancing Translational Sciences (NCATS), 2020)
